Laboratory results reported in PMC4682846 (PLoS ONE, 2015).

Experiments:
O=C(O)C(O)C(O)C(=O)O = experiment: purified protein; conditions: 100 mM MOPS/KOH pH 6.9, 5 mM DTT, 37 °C
O=C(O)C[C@H](O)C(=O)O = experiment: purified protein; conditions: 100 mM MOPS/KOH pH 6.9, 5 mM MgCl2, 5 mM DTT, 37 °C
C/C(=C\C(=O)O)C(=O)O = experiment: purified protein; conditions: 100 mM MOPS/KOH pH 6.9, 5 mM MgCl2, 5 mM DTT, 37 °C, anoxic, Fe2+/thiol reactivated
C[C@](O)(CC(=O)O)C(=O)O = experiment: purified protein; conditions: 100 mM MOPS/KOH pH 6.9, 5 mM MgCl2, 5 mM DTT, 37 °C, anoxic, Fe2+/thiol reactivated
[1] = target: T1, Class I fumarase B (FumB) (Escherichia coli, UniProt P14407); conditions: 100 mM MOPS/KOH pH 6.9, 5 mM MgCl2, 5 mM DTT, 37 °C, anoxic, Fe2+/thiol reactivated
[2] = target: Class II fumarase C (FumC) (Escherichia coli, UniProt P05042); conditions: 100 mM MOPS/KOH pH 6.9, 5 mM MgCl2, 5 mM DTT, 37 °C, oxic
[3] = target: Class I fumarase A (FumA) (Escherichia coli, UniProt P0AC33); conditions: 100 mM MOPS/KOH pH 6.9, 5 mM MgCl2, 5 mM DTT, 37 °C, anoxic, Fe2+/thiol reactivated
[4] = target: T1, Class I fumarase B (FumB); conditions: 100 mM MOPS/KOH pH 6.9, 5 mM DTT, 37 °C, anoxic, Fe2+/thiol reactivated

T1 sequence (P14407 whole entry): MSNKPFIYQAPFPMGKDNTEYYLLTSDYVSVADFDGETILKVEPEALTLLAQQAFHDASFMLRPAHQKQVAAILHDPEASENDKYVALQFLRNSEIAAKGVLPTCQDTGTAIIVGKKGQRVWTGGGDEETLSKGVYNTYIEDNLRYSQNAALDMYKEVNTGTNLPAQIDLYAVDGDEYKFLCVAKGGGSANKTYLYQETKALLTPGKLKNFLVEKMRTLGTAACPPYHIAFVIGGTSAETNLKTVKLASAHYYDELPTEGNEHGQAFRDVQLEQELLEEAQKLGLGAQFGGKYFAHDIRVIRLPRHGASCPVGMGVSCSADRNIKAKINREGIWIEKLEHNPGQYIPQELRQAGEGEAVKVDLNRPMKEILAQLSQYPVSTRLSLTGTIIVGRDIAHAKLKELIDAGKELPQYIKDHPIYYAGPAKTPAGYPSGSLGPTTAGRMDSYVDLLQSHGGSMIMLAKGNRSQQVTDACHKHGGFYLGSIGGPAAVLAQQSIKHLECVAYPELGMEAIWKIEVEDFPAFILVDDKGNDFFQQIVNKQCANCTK
Sequence of UniProt P05042 (P05042 whole entry): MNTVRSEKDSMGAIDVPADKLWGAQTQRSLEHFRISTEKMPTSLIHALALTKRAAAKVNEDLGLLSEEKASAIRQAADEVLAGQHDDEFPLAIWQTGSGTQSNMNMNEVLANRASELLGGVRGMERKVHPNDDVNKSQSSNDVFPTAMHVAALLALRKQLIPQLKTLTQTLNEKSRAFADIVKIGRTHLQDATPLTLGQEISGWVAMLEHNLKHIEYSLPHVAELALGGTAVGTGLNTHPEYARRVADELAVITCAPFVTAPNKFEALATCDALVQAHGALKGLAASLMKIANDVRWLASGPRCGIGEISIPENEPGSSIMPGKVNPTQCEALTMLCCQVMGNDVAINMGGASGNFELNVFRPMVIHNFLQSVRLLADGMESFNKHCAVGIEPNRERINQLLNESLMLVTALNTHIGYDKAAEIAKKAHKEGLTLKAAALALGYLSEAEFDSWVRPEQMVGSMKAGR

## Class II fumarase C (FumC) (Escherichia coli K-12)
O=C(O)C(O)C(O)C(=O)O; oxic
  Km: 6200 ± 2100 µM
  Vmax: 0.48 µmol/min/mg
  kcat/Km: 65 M⁻¹ s⁻¹
O=C(O)C[C@H](O)C(=O)O; oxic
  Km: 930 ± 120 µM
  Vmax: 431 µmol/min/mg
  kcat/Km: 390000 M⁻¹ s⁻¹

## Class I fumarase B (FumB) (Escherichia coli K-12)
O=C(O)C[C@H](O)C(=O)O; anoxic, Fe2+/thiol reactivated
  Km: 780 ± 130 µM
  Vmax: 289 µmol/min/mg
  kcat/Km: 370000 M⁻¹ s⁻¹
C/C(=C\C(=O)O)C(=O)O
  Km: 100 ± 7 µM
  Vmax: 57.8 µmol/min/mg
  kcat/Km: 580000 M⁻¹ s⁻¹
C[C@](O)(CC(=O)O)C(=O)O
  Km: 1040 ± 110 µM
  Vmax: 39.4 µmol/min/mg
  kcat/Km: 38000 M⁻¹ s⁻¹

## O=C(O)/C=C/C(=O)O [Fumarate]
[1]
  Km: 210 ± 30 µM
[2]
  Km: 280 ± 30 µM
[3]
  Km: 94 ± 15 µM

## Class I fumarase A (FumA) (Escherichia coli K-12)
O=C(O)C(O)C(O)C(=O)O; anoxic, Fe2+/thiol reactivated
  Km: 2000 ± 200 µM
  Vmax: 1.4 µmol/min/mg
  kcat/Km: 635 M⁻¹ s⁻¹
O=C(O)C[C@H](O)C(=O)O; anoxic, Fe2+/thiol reactivated
  Km: 400 ± 50 µM
  Vmax: 350 µmol/min/mg
  kcat/Km: 870000 M⁻¹ s⁻¹
C/C(=C\C(=O)O)C(=O)O
  Km: 220 ± 20 µM
  Vmax: 55.6 µmol/min/mg
  kcat/Km: 250000 M⁻¹ s⁻¹
C[C@](O)(CC(=O)O)C(=O)O
  Km: 1080 ± 130 µM
  Vmax: 37.4 µmol/min/mg
  kcat/Km: 35000 M⁻¹ s⁻¹

## O=C(O)[C@@H](O)[C@H](O)C(=O)O [(S,S)-(-)-Tartrate]
[4]
  Km: 800 ± 50 µM

Like-named read-outs stand apart in the source and are kept apart here.
